Experimental data reported in the supplement of paper PMC3334620.
The full ranking holds about 33,000 sequences; the median of “E-score (-0.5 to 0.5)” is about -0.011, and the highest 2% start at about 0.28. Some of the results follow.

Target: T1, Gcr1 (UniProt P07261)
T1 sequence: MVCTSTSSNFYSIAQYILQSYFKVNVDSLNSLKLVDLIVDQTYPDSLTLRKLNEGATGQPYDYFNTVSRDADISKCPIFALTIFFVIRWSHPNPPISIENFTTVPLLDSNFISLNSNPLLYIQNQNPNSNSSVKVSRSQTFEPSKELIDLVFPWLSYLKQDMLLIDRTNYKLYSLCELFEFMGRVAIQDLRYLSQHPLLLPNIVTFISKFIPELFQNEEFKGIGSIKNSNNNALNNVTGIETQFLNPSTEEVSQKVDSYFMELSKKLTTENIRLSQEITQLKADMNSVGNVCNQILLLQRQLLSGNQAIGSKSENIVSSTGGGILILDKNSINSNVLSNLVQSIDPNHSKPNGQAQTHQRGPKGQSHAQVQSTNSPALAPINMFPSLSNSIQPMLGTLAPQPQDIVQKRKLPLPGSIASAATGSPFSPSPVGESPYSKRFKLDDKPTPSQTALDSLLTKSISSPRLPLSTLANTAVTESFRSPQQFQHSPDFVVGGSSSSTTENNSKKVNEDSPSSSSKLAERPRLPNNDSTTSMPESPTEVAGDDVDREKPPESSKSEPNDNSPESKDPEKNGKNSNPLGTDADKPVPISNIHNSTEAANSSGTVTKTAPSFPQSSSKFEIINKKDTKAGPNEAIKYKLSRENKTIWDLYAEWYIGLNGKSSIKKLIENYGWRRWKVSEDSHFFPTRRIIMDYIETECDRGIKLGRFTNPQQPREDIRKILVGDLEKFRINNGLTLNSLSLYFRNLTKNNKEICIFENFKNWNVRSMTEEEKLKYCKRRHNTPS
Assay: PBM E-score (8-mer binding enrichment) (E-score (-0.5 to 0.5)); higher = stronger / more preferred TF binding; most listed sequences are background and not binding sites
Conditions: protein concentration: 100 nM; construct: GST-full length
Summary of the method: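 Detection of bound protein used fluorescent anti-GST, with scans normalised by masliner. The proteins were GST-tagged yeast transcription factors applied at about 100-200 nM to universal all-10-mer Agilent arrays made double-stranded by primer extension. Each ungapped eight-base word, pooled with its reverse complement, was scored with an E-score from the Universal PBM Analysis Suite.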

Sequence | PBM E-score
GGTTGATA | 0.14
AGGACGAG | -0.073
AAAGTGGA | 0.24
ACTCATAT | -0.0256
CATTTACA | -0.0327
CGCGCTTA | -0.0607
CTAGTTTA | 0.00723
GAAAGGTC | -0.172
GCATGTTA | -0.133
CGTGTTAG | -0.144
CTTTGCGA | 0.0341
AAGGCCTA | -0.182
ACCCTCTG | 0.0165
ACTTGACG | -0.152
ATAAGTTG | 0.225
CTAAAGCC | -0.155
ATCAACAA | -0.0486
ACGATGCC | 0.213
AACTACCT | 0.125
ATACGGTG | 0.251
CCGGTAAC | 0.0844
GCGCAACA | -0.0522
ACGACGTA | -0.0831
CCGACACC | 0.108
ATGAAATG | 0.104

Sequence | PBM E-score
GCGTCTTA | 0.239
GGCTGAAC | -0.236
GTACGTGA | -0.119
AGGAAGTG | 0.213
GGCGGGTA | -0.141
AAGGATGT | 0.0399
AGTTCATC | -0.00686
AATGATTA | 0.064
AAGGATCC | 0.187
GGCGACAC | -0.0942
CGTCTCGA | -0.00962
CCGGCAAG | -0.101
GTCTATGA | -0.0665
AAATATTG | 0.116
AGGCTAAA | 0.0237
CACCGTTA | -0.267
AGGCGCTA | 0.0978
CACTCATG | 0.0264
CTTGCACC | 0.0381
ACGCACAG | -0.124
CCGCCCAC | 0.0451
GACATTCC | -0.0198
CAAAACAA | -0.0517
GGGTGACC | -0.0279
CCTGGGAG | -0.108

Sequence | PBM E-score
CGAGGATC | 0.0916
AAGGGCTA | -0.138
AAGATCAC | -0.008
CCAGGCTC | 0.0327
GCCAGGTA | 0.0834
TATCCGAA | 0.177
CCGGGTTC | 0.241
GAGAGCCA | -0.04
GTCGCGAA | -0.0461
ACCGACAT | -0.0514
ACCAAACC | -0.0634
CGAACAGA | 0.0941
GAAGATCA | 0.0886
GCGATGCA | -0.273
AACTATAC | 0.0928
AACGTTAC | -0.0809
GACCACCA | 0.15
AGGTCTTC | -0.207
GATCTTTA | 0.0742
ATTGGATG | 0.183
ATGTCCTG | 0.0222
AAAATCAT | -0.252
AATGGAGT | -0.197
ACCTAGCT | -0.115
GGGCGATA | -0.0581

Sequence | PBM E-score
CAGATAAA | -0.105
TCAGACAA | -0.16
AAACCCGG | 0.0332
AATTTCTA | 0.11
GTGCCCCA | -0.0431
AAGCAGCA | -0.176
ATTAGTCA | 0.0953
ACTATTAA | 0.0477
AGAAATGC | 0.0466
ATTCTGGA | 0.18
CGAGGAAC | 0.0491
AATCGCAG | -0.102
CGGTCTGA | -0.0485
AATATCGG | 0.0858
GTTGCCAA | 0.177
CACATACG | 0.0844
CGTGTACC | -0.104
GGCCATTA | -0.196
CAGTTGGC | 0.155
ACGCGATA | -0.0739
CAGTGCTA | -0.126
CTTCCTGC | 0.177
AGTTATTA | 0.0695
CTATAACC | -0.0756
CCATGCGG | -0.0115

Sequence | PBM E-score
AAATTAAG | 0.0604
GACTTTAA | -0.0686
CACTGCCG | -0.0677
ATCTCTAC | 0.0209
AGCCTGTG | -0.235
ACATCGGA | -0.0949
CCCCCACG | -0.216
GTCATGCA | -0.1
GAAGGGCA | -0.171
CAGTCACC | -0.0546
CGAATAGC | -0.154
AAAATACA | 0.0681
GTCCGTTA | -0.0901
ACAACTTA | -0.0215
AGACAGGG | 0.0824
ATAACAAA | 0.0456
ACCTTGTG | -0.204
ACTGCGCC | -0.153
ATGGAACC | 0.294
CCTGTCAG | -0.0225
AAGTAGCA | 0.215
AGGATTTC | -0.121
ACGGGTCT | -0.221
GCGTGCAC | -0.0959
CGTCCTAA | 0.17

Sequence | PBM E-score
ATAATGCC | -0.102
TACTCTGA | -0.106
CATTTCCC | 0.0282
TTCTAAAA | 0.0989
GTTAAAAC | -0.0162
GACCTAGA | -0.083
CGCGTTAC | -0.145
CATAACGG | -0.0324
AGGTATGG | 0.228
CATAAACC | -0.215
CCTACTCG | -0.0397
AGGGGAAC | -0.00862
ACTTTAGC | -0.0523
AAGATGCC | 0.31
CTCCAAAG | 0.106
GGTTTTCA | 0.0994
GCTTTCCA | -0.0339
ATGTTGGA | 0.0457
AAAAAACT | -0.0404
ATGTCTAC | -0.0532
GATACATC | 0.126
CAGATCGA | -0.044
ATGTCGGG | 0.0104
TGGCTGAA | 0.0392
AGGCCGAG | -0.0943

Sequence | PBM E-score
AGAGCACG | -0.0799
GGAATCAC | 0.0399
CCATCTAA | 0.0606
GCACGAAC | 0.054
CGCTAGCA | 0.106
AATCACGT | 0.0314
AACAACTG | 0.0271
GATAAGGA | 0.184
GGAAATGA | 0.0726
AACACTAA | 0.065
AACTTAGA | 0.12
AGATGGGG | 0.0136
AGCCATGC | -0.346
CGTCTGGA | 0.0436
ACGAGCGT | -0.161
ACTGCTAA | -0.0287
ATAGTGCA | -0.00123
CACTAGAC | -0.065
AGCTCACA | -0.278
CTCGCGGA | 0.0288
CCATCCAG | 0.151
GACATTGA | 0.0742
